{"source": "PubChem BioAssay AID504466", "about": "(National Center for Advancing Translational Sciences (NCATS), 2011)", "note": "The whole screen tested about 330,000 compounds, of which about 4,200 (1.3%) were called active. The inconclusive results got no clear call from the source; some entries with a clear call stand among them for comparison. The call rests on the fitted dose curve; in most records, active means well fitted activation curve with a large enough effect; inconclusive means small, poorly fitted or top-dose-only effect; inactive means no such curve, though single readings can be large or run the other way. Potencies of inconclusive entries are doubtful fits and often do not repeat. Potency means the concentration at half of the fitted maximal effect; tags describe the fitted curve by direction and shape.", "data": [{"assay": "qHTS screen for small molecules that induce genotoxicity in human embryonic kidney (HEK293T) cells expressing luciferase-tagged ELG1; further: nearly all actives have a fitted effect of over 60% in size; on activity change, positive = activation: % of control where 0% means no effect", "conditions": "HEK293T ELG1-luciferase reporter, luminescence, 16 h; series mostly up to 46 µM; activity change, positive = activation: at the top concentration", "outline": "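Screening used a luciferase reporter fused to human ELG1 in HEK293T cells. Luminescence was read on a CCD plate imager after 16 hr exposure and 30 min ONE-Glo incubation.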", "values": [{"smiles": "O=C(CC(=O)NC1CCCCC1)N/N=C/c1ccccc1[N+](=O)[O-]", "Potency": "inconclusive: 20.6 µM [activator, partial curve, poor fit]"}, {"smiles": "CN(Cc1ccccc1)Cc1c(F)cccc1F", "activity change, positive = activation": "inactive: -4.64%"}, {"smiles": "Cn1cc2ccc(N)cc2n1", "activity change, positive = activation": "inactive: -1.53%"}, {"smiles": "COc1cc(OC)c2c(-c3cccc(-c4ccc(NC(C)=O)cc4)c3)cc(=O)oc2c1", "Potency": "inconclusive: 3.66 µM [activator, full curve, poor fit]"}, {"smiles": "Nc1nc(NC(=O)c2ccccc2)nn1-c1ccccc1", "Potency": "inconclusive: 32.6 µM [activator, partial curve, poor fit]"}, {"smiles": "Oc1cccc(/C=N/Nc2ccc(Cl)nn2)c1", "Potency": "inconclusive: 18.3 µM [activator, partial curve, poor fit]"}, {"smiles": "Nc1ccccc1-c1nnc(SCC(=O)Nc2ccccc2OC(F)F)[nH]c1=O", "activity change, positive = activation": "inactive: 3.3%"}, {"smiles": "CC(C)c1ccc(N(C(=O)c2ccco2)C(C(=O)NC2CCCC2)c2ccncc2)cc1", "note": "(centres undefined)", "Potency": "inconclusive: 5.8 µM [activator, full curve]"}, {"smiles": "COc1ccc(-c2noc(-c3cccs3)n2)cc1OC", "Potency": "inconclusive: 8.2 µM [activator, partial curve]"}, {"smiles": "CCC(C)NC(=O)C(Cc1ccccc1)n1cccc1", "note": "(centres undefined)", "activity change, positive = activation": "inactive: -7.55%"}, {"smiles": "Cc1cccn2cc(-c3ccccc3)nc12", "Potency": "inconclusive: 2.31 µM [activator, full curve]"}, {"smiles": "Cc1cccc(NC(=O)Cc2nnc(NC(=O)Nc3ccccc3F)s2)c1", "Potency": "inconclusive: 25.9 µM [activator, single point]"}, {"smiles": "CCOC(=O)c1sc(SC)c2c1CCCC2=O", "activity change, positive = activation": "inactive: 1.96%"}, {"smiles": "CCOC(=O)c1sc(Nc2nc3c(F)cccc3s2)cc1C", "Potency": "inconclusive: 11.6 µM [activator, partial curve, poor fit]"}, {"smiles": "O=C(OCc1cccnc1)C1=Cc2ccccc2OC1", "Potency": "inconclusive: 23.1 µM [activator, single point]"}, {"smiles": "CCOC(=O)C1CCCN(CCC(=O)Nc2ccc(C)cc2)C1", "note": "(centres undefined)", "activity change, positive = activation": "inactive: -0.519%"}, {"smiles": "OC1CCC(NC(=S)Nc2ccc(SC(F)F)cc2)CC1", "note": "(centres undefined)", "Potency": "inconclusive: 23.1 µM [activator, partial curve, poor fit]"}, {"smiles": "CN(Cc1c(F)cccc1Cl)C(=O)c1ccc(NC(=O)CC2SC(N3CCCC3)=NC2=O)cc1", "note": "(centres undefined)", "activity change, positive = activation": "inactive: -1.71%"}, {"smiles": "CCN(CC(=O)Nc1ccc(NC(C)=O)cc1)C(=O)CCCOc1cccc(C)c1", "Potency": "inconclusive: 32.6 µM [activator, partial curve, poor fit]"}, {"smiles": "C/C(=N\\NC(=O)c1ccccc1F)c1cccc(NC(=O)c2ccc(C)cc2)c1", "Potency": "inconclusive: 4.61 µM [activator, partial curve, poor fit]"}, {"smiles": "Cc1cc(C)cc(NC(=S)Nc2cccc3ccccc23)c1", "Potency": "inconclusive: 5.17 µM [activator, full curve]"}, {"smiles": "CCCOc1ccc(/C=N/Nc2ccc(C(=O)O)cc2)c(OCCC)c1", "Potency": "inconclusive: 9.2 µM [activator, partial curve]"}, {"smiles": "CC#CC(=O)N1CCC(C(=O)Nc2ccc(Oc3ccccc3)nc2)CC1", "Potency": "inconclusive: 20.6 µM [activator, partial curve, poor fit]"}, {"smiles": "CC(=O)c1ccc(NC(=O)NC2CCCCCCC2)cc1", "Potency": "active: 8.2 µM"}, {"smiles": "Cn1c(=O)c2c(nc(CN3CCc4ccccc4C3)n2CCCO)n(C)c1=O", "activity change, positive = activation": "inactive: -4.52%"}, {"smiles": "O=C(/C=C/c1ccccc1)Nc1ncn[nH]1", "Potency": "inconclusive: 18.4 µM [activator, partial curve, poor fit]"}, {"smiles": "COc1cc(/C=N/Nc2ccc3ccccc3c2)ccc1OC(=O)c1ccco1", "Potency": "inconclusive: 11.6 µM [activator, partial curve]"}, {"smiles": "CSc1ccc(/C=C(/NC(=O)c2ccco2)C(=O)NCc2ccco2)cc1", "Potency": "inconclusive: 29.1 µM [activator, single point]"}, {"smiles": "O=C(COC(=O)C12CC3CC(CC(O)(C3)C1)C2)Nc1ccc(Br)cc1F", "Potency": "inconclusive: 14.6 µM [activator, partial curve]"}, {"smiles": "CC(=O)c1ccc(N2Cc3ccccc3C2=NC(=O)c2cccs2)cc1", "Potency": "inconclusive: 8.2 µM [activator, partial curve, poor fit]"}, {"smiles": "CC(NC(=O)CCc1nnc(CCCc2ccccc2)o1)c1ccccc1", "note": "(centres undefined)", "Potency": "inconclusive: 25.9 µM [activator, partial curve, poor fit]"}, {"smiles": "CCc1c(C)nc(Nc2nc(C)c3ccc(OC)cc3n2)[nH]c1=O", "Potency": "inconclusive: 11.2 µM [activator, partial curve, poor fit]"}, {"smiles": "COCC(C)N1CCC(Oc2cccc(C(=O)NCCc3ccccc3)c2)CC1", "note": "(centres undefined)", "Potency": "inconclusive: 23.1 µM [activator, partial curve, poor fit]"}, {"smiles": "O=C(CCC1CCCC1)NNC(=O)c1cc2ccccc2cc1O", "activity change, positive = activation": "inactive: -5.12%"}, {"smiles": "CCOC(=O)c1c(C)[nH]c(N=Nc2cccc(C)c2)c1C", "Potency": "active: 2.51 µM"}, {"smiles": "O=C(NC1CCCCC1)NC1CC2CCC(C1)N2C(=S)NCc1ccco1", "note": "(centres undefined)", "activity change, positive = activation": "inactive: -3.44%"}, {"smiles": "O=C(Nc1nccs1)c1ccc(-c2ccccc2[N+](=O)[O-])o1", "Potency": "inconclusive: 4.11 µM [activator, full curve]"}, {"smiles": "O=c1oc(-c2ccc(O)c(O)c2)cc2cccc(O)c12", "Potency": "inconclusive: 16.4 µM [activator, single point]"}, {"smiles": "O=C(c1nnc(-c2ccc(Cl)cc2)o1)C1CCCC1", "Potency": "inconclusive: 23.1 µM [activator, single point]"}, {"smiles": "Cc1csc(NC(=O)C(CC(C)C)NS(=O)(=O)c2ccc3c(c2)oc(=O)n3C)n1", "note": "(centres undefined)", "Potency": "inconclusive: 32.6 µM [activator, partial curve, poor fit]"}, {"smiles": "COc1ccc(OC)c(/C=C/C(=O)Nc2cccc(S(=O)(=O)NC3=NCCCCC3)c2)c1", "activity change, positive = activation": "inactive: -1.21%"}, {"smiles": "CSC(=S)N/N=C/c1ccc(N(C)C)cc1", "Potency": "inconclusive: 16.4 µM [activator, single point]"}, {"smiles": "CCCCOc1ccc(C(=O)OC2CC(C)N(C)CC2C)cc1", "note": "(centres undefined)", "Potency": "inconclusive: 23.1 µM [activator, partial curve, poor fit]"}, {"smiles": "COCCN1C(=O)C(=O)/C(=C(/O)c2ccc(C)cc2)C1c1ccccn1", "note": "(centres undefined)", "activity change, positive = activation": "inactive: 3.55%"}, {"smiles": "COc1ccc(CCN(Cc2nc3ccccc3c(=O)[nH]2)C(=O)c2ccco2)cc1", "activity change, positive = activation": "inactive: -5.1%"}, {"smiles": "CCOC(=O)N1CCN(C(=O)CSCc2ccccc2)CC1", "activity change, positive = activation": "inactive: 17.5%"}, {"smiles": "COc1ccccc1CNC(=O)CN(C)S(=O)(=O)c1ccc2c(c1)c(=O)n(C)c(=O)n2C", "activity change, positive = activation": "inactive: -0.17%"}, {"smiles": "CSc1cccc(NC(=O)c2ccccn2)c1", "Potency": "inconclusive: 18.3 µM [activator, partial curve]"}, {"smiles": "Cc1ccc(NC(=S)Nc2cccnc2)c(S(=O)(=O)N2CCCCC2)c1", "activity change, positive = activation": "inactive: -5.14%"}, {"smiles": "Cc1cccc(N2CCN(C(=O)c3cccc(N4CCCC4=O)c3)CC2)c1C", "activity change, positive = activation": "inactive: -9.63%"}, {"smiles": "CC(=O)Nc1ccc(S(=O)(=O)Nc2nc(C)nc3sc(C)c(C)c23)cc1", "activity change, positive = activation": "inactive: 2.97%"}, {"smiles": "O=C(c1ccc2c(c1)OCO2)N(c1ccc(Br)cc1)C1C=CS(=O)(=O)C1", "note": "(centres undefined)", "activity change, positive = activation": "inactive: -5.64%"}, {"smiles": "COc1ccc(C(=O)NC(=O)NC2(C(Cl)(Cl)Cl)OCCO2)cc1", "Potency": "active: 0.651 µM"}, {"smiles": "C[C@]12CC[C@@H]3c4ccc(OC(=O)c5ccccc5)cc4CC[C@H]3[C@@H]1CC[C@@H]2O", "Potency": "inconclusive: 25.9 µM [activator, partial curve, poor fit]"}, {"smiles": "Cc1cccc(-n2ncc3c(N(C)C4CCCCC4)ncnc32)c1", "Potency": "active: 0.461 µM"}, {"smiles": "S=C1c2ccccc2CN1c1ccccc1", "activity change, positive = activation": "inactive: 12%"}, {"smiles": "COC(=O)Nc1nnc(COc2ccccc2)s1", "activity change, positive = activation": "inactive: 0.445%"}, {"smiles": "COc1ccc(-n2nc3cc(C)c(NC(=O)c4cccnc4)cc3n2)cc1", "Potency": "inconclusive: 5.8 µM [activator, partial curve]"}, {"smiles": "COc1cccc(/C=C/c2ccc3cccc(O)c3n2)c1", "Potency": "active: 23.1 µM"}, {"smiles": "O=C(NC(=S)Nc1ccccn1)c1ccccc1", "Potency": "active: 1.64 µM"}, {"smiles": "O=c1cc(-c2ccccc2F)oc2ccccc12", "Potency": "inconclusive: 9.2 µM [activator, partial curve, poor fit]"}, {"smiles": "Clc1ccc(Nc2nc(-c3cccnc3)cs2)cc1", "Potency": "inconclusive: 20.6 µM [activator, partial curve]"}, {"smiles": "NC(=O)c1ccccc1NCC(=O)c1ccc(Cl)cc1", "activity change, positive = activation": "inactive: 0.348%"}, {"smiles": "COc1ccc2c(c1)CCc1c(C(=O)N3CCCc4ccccc43)noc1-2", "Potency": "inconclusive: 23.1 µM [activator, single point]"}, {"smiles": "COc1ccc2nc(N3CCOCC3)cc(C)c2c1", "Potency": "active: 8.2 µM"}, {"smiles": "NC(=O)c1c(NC(=O)c2cccnc2)sc2c1CCCC2", "Potency": "inconclusive: 8.2 µM [activator, partial curve, poor fit]"}, {"smiles": "O=C(c1ccc([N+](=O)[O-])s1)N1CCc2ccccc21", "activity change, positive = activation": "inactive: 4.63%"}, {"smiles": "O=C(Nc1nccs1)c1ccc(N2C(=O)[C@@H]3[C@H](C2=O)[C@H]2C=C[C@@H]3C2)cc1", "Potency": "inconclusive: 20.6 µM [activator, partial curve]"}, {"smiles": "CCCc1nc2ccc(NC(C)=O)cc2c(=O)n1Cc1ccc(Cl)cc1", "Potency": "inconclusive: 32.6 µM [activator, partial curve, poor fit]"}, {"smiles": "COc1cc(NC(=O)n2ncc3cc(Cl)ccc32)cc(OC)c1", "Potency": "inconclusive: 29.1 µM [activator, partial curve, poor fit]"}, {"smiles": "O=C(Cc1ccccc1)NC(=S)Nc1ccc2oc(-c3ccccc3F)nc2c1", "activity change, positive = activation": "inactive: 15.1%"}, {"smiles": "COc1ccc(C2=NN(CN3C(=O)C(=O)c4ccccc43)C(c3ccc(C)cc3)C2)cc1", "note": "(centres undefined)", "Potency": "inconclusive: 14.6 µM [activator, partial curve]"}, {"smiles": "CC(=O)N1CCc2c(sc(NC(=O)c3ccc4c(c3)OCCO4)c2C#N)C1", "Potency": "inconclusive: 20.6 µM [activator, single point]"}, {"smiles": "COCCn1c(C)cc(C(=O)COC(=O)c2cc3c(s2)CCC3)c1C", "Potency": "inconclusive: 16.4 µM [activator, partial curve, poor fit]"}]}]}
